Measured values: PubChem BioAssay AID463173 (ICCB-Longwood Screening Facility, Harvard Medical School, 2010)
Among all 52,000 compounds or so, about 1,700 (3.3%) were called active. No stated cut-off is given here; in the data, active means survival mostly below about 52% (no sharp cut-off); inactive means mostly above about 56%. Some of the results follow.

test system: Wild type; assay: S. aureus survival, RN4220 and DeltatarO strains – OD600, teichoic acid synthesis inhibitors, primary screen (AID 463173); conditions: S. aureus RN4220 wild type/DeltatarO growth, OD600, 18 h, hits give low values, screened at 18.75 µg/mL (by protocol)

SMILES	survival
Cc1ccccc1C(=O)Nc1cc2c(cc1N1CCCCC1)n(C)c(=O)n2C	inactive: 62%
CCn1c(=O)n(-c2ccc3c(c2)OCO3)c2nc(-c3cccc(OC)c3OC)nc(C(N)=O)c21	inactive: 73%
O=C1N/C(=N\S(=O)(=O)Cc2ccccc2)S/C1=C\c1ccco1	inactive: 106%
CCCn1cc(S(=O)(=O)c2ccc(C)c(C)c2)c(=O)c2cc(F)c(N3CCC(C)CC3)cc21	inactive: 73%
Cc1ccc(C(=O)CSc2nnnn2C2CCCC2)cc1C	inactive: 108%
S=C(NCCN1CCCCC1)Nc1ccccc1	inactive: 108%
CCOc1ccccc1N(C)C(=O)c1cc2c(s1)-c1ccccc1OC2	active: 13%
CC(C)OCCCNC(=O)Cc1ccc(NC(=O)N2CCCCc3ccccc32)cc1	inactive: 77%
CCc1ccccc1NC(=O)Cn1c(=O)n(-c2cccc(C)c2)c(=O)c2c1c1cc(OC)ccc1n2C	inactive: 59%
CCOC(=O)CC(NC(=O)c1cc2c(=O)n3cccc(C)c3nc2s1)c1ccc(OCC)c(OC)c1 (configuration not stated)	inactive: 138%
COc1ccccc1NC(=O)CC1S/C(=N\N=C(/C)c2ccccc2)NC1=O (configuration not stated)	inactive: 130%
Cc1ccc(NC(=O)Cn2c(=O)n(CC(=O)NCCc3ccccc3)c(=O)c3ccccc32)cc1C	inactive: 76%
COc1ccc(-c2noc(CCC(=O)Nc3cccc(C)c3C)n2)cc1OC	inactive: 88%
Cc1ccc(S(=O)(=O)c2cn(CC(=O)Nc3ccc(F)cc3)c3cc4c(cc3c2=O)OCO4)cc1	inactive: 57%
CCc1cccc(NC(=O)Nc2cn(C)c(=O)c3ccccc23)c1	inactive: 78%
COc1cccc(NC(=O)C2CCN(S(=O)(=O)c3c(C)noc3C)CC2)c1	inactive: 82%
Cc1ccc(C(=O)COC(=O)c2cc(-c3cccs3)nc3ccccc23)cc1	inactive: 76%
Cc1c(C(=O)Nc2ccc(F)c(F)c2)oc2ccc(S(=O)(=O)N3CCC4(CC3)OCCO4)cc12	inactive: 58%
O=C(Nc1c(-c2ccc(F)cc2)nc2ccccn12)c1cccc(F)c1	inactive: 136%

SMILES	survival
CC(=O)Nc1ccc(NS(=O)(=O)c2ccc(Cl)s2)cc1	inactive: 84%
COc1ccccc1CNC(=O)CN(c1ccc(C)cc1)S(=O)(=O)c1c(C)noc1C	inactive: 77%
Cc1nn(-c2ccc(F)cc2)c(-n2cccc2)c1C(=O)N1CCN(c2ccccc2F)CC1	inactive: 71%
Cc1oc(C(C)(C)C)cc1C(=O)NCCO	inactive: 117%
COc1ccc(OC)c(NC(=O)c2cnc(N3CCCC3)nc2C)c1	inactive: 84%
CCNC(=S)N1CCC(NC(=O)C23CC4CC(CC(C4)C2)C3)CC1	inactive: 101%
Cc1ccc(C2C=C(c3ccc(F)cc3)Nc3nc(CCCO)nn32)cc1 (configuration not stated)	inactive: 91%
Nc1ccc2c(c1)ncn2CCO	inactive: 115%
CCCCc1ccc(NS(=O)(=O)c2ccc(N3CCCCS3(=O)=O)cc2)cc1	inactive: 73%
CCOc1ccc(C(=O)c2cn(Cc3ccccc3)c3c(F)cc(F)cc3c2=O)cc1	inactive: 95%
O=C(O)c1snc2c(=O)[nH]cnc12	inactive: 105%
CCSc1ncc(Cl)c(C(=O)N(Cc2ccccc2)Cc2ccco2)n1	inactive: 123%
CCCOc1ccc(NC(=O)CC2C(=O)N(c3ccc(C)cc3)C(=O)N2C2CCCC2)cc1 (configuration not stated)	inactive: 81%
O=C(CN1C(=O)CCc2cc(S(=O)(=O)N3CCOCC3)ccc21)NCc1ccccc1Cl	inactive: 65%
O=C(CSc1nc2c([nH]c3ccccc32)c(=O)n1-c1ccc(F)cc1)NCc1ccco1	inactive: 88%
CC1=C(C(=O)Nc2cc(Cl)ccc2C)C(c2ccco2)n2ncnc2N1 (configuration not stated)	inactive: 81%
CC(CC(=O)NC1CCCC1)c1ccccc1 (configuration not stated)	inactive: 108%
CCSc1nnc2c(n1)OC(c1sccc1C)N(C(C)=O)c1ccccc1-2 (configuration not stated)	inactive: 70%
Cc1ccc(OCC(=O)Nc2ccc3nc(SCC(N)=O)sc3c2)cc1	inactive: 84%

SMILES	survival
COc1ccc(Cn2c(=O)c3oc4ccccc4c3n(Cc3cccc(F)c3)c2=O)cc1	inactive: 94%
CCOC(=O)C1CCCN(S(=O)(=O)c2cc3c(cc2C)NC(=O)CO3)C1 (configuration not stated)	inactive: 84%
O=C(NCc1cccc(F)c1)c1ccc2nc(N3CCCCC3)sc2c1	inactive: 89%
Cc1ccc(NC(=O)C2CCCN(S(=O)(=O)c3c(C)n[nH]c3C)C2)cc1Cl (configuration not stated)	inactive: 90%
COC(=O)c1c(C)oc2ccc(N(C(=O)Oc3ccccc3)S(=O)(=O)c3ccc(C(C)(C)C)cc3)cc12	inactive: 78%
O=C(NCCc1ccc(Cl)cc1)c1ccc2c(c1)N(Cc1c(F)cccc1Cl)C(=O)CS2	inactive: 76%
Cc1c(C)n(C)c2ccc(C(=O)NCCc3ccc(Cl)cc3)cc12	inactive: 74%
CCOC(=O)COc1ccc(CC)cc1C(=O)c1ccn2nc(-c3ccc(Cl)cc3)cc2n1	inactive: 72%
Cc1ccc(-n2nc3ccc(NC(=O)Cc4ccc(Cl)cc4)cc3n2)cc1	inactive: 97%
CCOC(=O)c1c(NC(=O)C(C)Sc2cn(CCNC(=O)c3ccccc3OC)c3ccccc23)sc2c1CCC2 (configuration not stated)	inactive: 90%
COC(=O)c1sc2cccc(F)c2c1S(=O)(=O)NCc1ccc(Cl)cc1	inactive: 81%
CCC1Oc2ccc(C)cc2N(CC(=O)N(Cc2ccc(F)cc2)CC2CCCO2)C1=O (configuration not stated)	inactive: 109%
CCOc1ccc(NC(=O)Cn2c(=O)n(CCCC(=O)NCc3ccc4c(c3)OCO4)c(=O)c3ccccc32)cc1	inactive: 97%
Cc1ccc(CSc2ncc(Cl)c(C(=O)Oc3ccc(F)cc3)n2)cc1	inactive: 89%
COc1ccc(-c2noc(N3CCN(c4ccc(C)cc4)C(C)C3)n2)cc1OC (configuration not stated)	inactive: 78%
COc1cccc(CNC(=O)CSC2=Nc3ccccc3C3=NC(C)C(=O)N23)c1OC (configuration not stated)	inactive: 135%
O=C(Cn1c(C(=O)N2CCOCC2)cc2sccc21)c1ccccc1	inactive: 110%
CCCCS(=O)(=O)c1oc(-c2ccc(F)cc2)nc1S(=O)(=O)c1ccccc1	active: 7%
Fc1ccc(-c2cc(C(F)(F)F)nc(NCc3ccccc3)n2)cc1	inactive: 93%
